Measured values reported in the supplement of paper PMC4967469.
By IC50 is meant the dose at which the fit gives 50% viability; fits outside the tested doses are given as limits. AUC sums up the same curve from the lowest dose to the 256-fold higher top dose; the more sensitive the line, the further below 1. The top dose, if marked as inferred, was derived from the fitted curves, not read from the paper. For part of these data: Where an entry number is given, a second screen of the drug exists; the two often differ.

What was measured:
Experiment in all cases: Viability of human cancer cell lines after 72 h of drug (GDSC screen)
XMD11-85h = compound: COc1cc(C(=O)NC2CCN(C)CC2)ccc1Nc1ncc2c(n1)N(C1CCCC1)CCC(=O)N2C(C)C [XMD11-85h]; conditions: top dose 10 µM; top dose inferred
Experimental: (§1)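 Human cancer cell lines in 384-well plates, medium with 10% serum, drug for 72 h over a 256-fold dose range (nine 2-fold or five 4-fold steps up to the top dose). Adherent lines were fixed and stained with the nucleic acid dye Syto60, suspension lines read with resazurin; signal relative to control wells, capped at 0 and 100%. One two-parameter sigmoid per drug and line, fitted in a mixed model over all curves with the slope shared within a line.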

MLN4924 = compound: NS(=O)(=O)OC[C@@H]1C[C@@H](n2ccc3c(N[C@H]4CCc5ccccc54)ncnc32)C[C@@H]1O [MLN4924]; conditions: top dose 1 µM; top dose inferred
Experimental: as §1

BMN-673 = compound: Cn1ncnc1[C@H]1c2n[nH]c(=O)c3cc(F)cc(c23)N[C@@H]1c1ccc(F)cc1 [BMN-673]; conditions: top dose 10 µM; top dose inferred
Experimental: as §1

AZD6482 = compound: Cc1cc([C@@H](C)Nc2ccccc2C(=O)O)c2nc(N3CCOCC3)cc(=O)n2c1 [AZD6482]
Experimental: as §1

[1] = top dose 5 µM, screen: GDSC drug entry 1066, top dose inferred
[2] = top dose 5.12 µM, screen: GDSC drug entry 156

Cell Line	AUC (XMD11-85h)	IC50 (XMD11-85h) [µM]	AUC (MLN4924)	IC50 (MLN4924) [µM]	AUC (BMN-673)	IC50 (BMN-673) [µM]	AUC (AZD6482; [1])	IC50 (AZD6482; [1]) [µM]	AUC (AZD6482; [2])	IC50 (AZD6482; [2]) [µM]
K-562 (chronic myeloid leukaemia, suspension)	0.929	> 10	0.945	> 1	–	–	–	–	–	–
OVCAR-8 (ovary, adherent)	0.945	> 10	–	–	0.468	0.516	0.935	> 5	0.953	> 5.12
OVKATE (ovary, adherent)	0.965	> 10	–	–	0.896	> 10	0.972	> 5	0.922	> 5.12
OVTOKO (ovary, adherent)	0.864	> 10	–	–	0.866	> 10	0.698	1.33	0.726	1.71
PANC-02-03 (pancreas, adherent)	0.931	> 10	–	–	0.913	> 10	0.879	> 5	0.924	> 5.12
PCI-4B (head and neck, adherent)	0.956	> 10	–	–	0.413	0.367	0.91	> 5	0.923	> 5.12
PCI-6A (head and neck, adherent)	0.979	> 10	–	–	0.889	> 10	0.942	> 5	0.983	> 5.12
PCI-30 (head and neck, adherent)	0.959	> 10	–	–	0.735	3.47	0.937	> 5	0.947	> 5.12
PEO1 (ovary, adherent)	0.929	> 10	–	–	0.799	5.02	0.987	> 5	–	–
PFSK-1 (medulloblastoma, adherent)	0.898	> 10	–	–	0.773	4.15	0.986	> 5	0.952	> 5.12
PL4 (pancreas, adherent)	0.969	> 10	–	–	0.863	9.12	0.953	> 5	0.963	> 5.12
QGP-1 (pancreas, adherent)	0.967	> 10	–	–	0.951	> 10	0.977	> 5	–	–
RCC-AB (kidney, adherent)	0.96	> 10	–	–	0.775	5.22	0.943	> 5	–	–
RCC-ER (kidney, adherent)	0.922	> 10	–	–	0.822	6.76	0.94	> 5	–	–
RCC-FG2 (kidney, adherent)	0.968	> 10	–	–	0.89	> 10	0.386	0.139	–	–
RCC-JF (kidney, adherent)	0.98	> 10	–	–	0.608	1.28	0.33	0.0988	–	–
RCC-JW (kidney, adherent)	0.967	> 10	–	–	0.573	0.997	0.616	0.659	–	–
RCC-MF (kidney, adherent)	0.968	> 10	–	–	0.633	1.63	0.73	1.74	–	–
RCM-1 (large intestine, adherent)	0.979	> 10	–	–	0.981	> 10	0.863	> 5	0.982	> 5.12
RERF-LC-KJ (lung adenocarcinoma, adherent)	0.891	> 10	–	–	0.93	> 10	0.955	> 5	0.936	> 5.12
RH-1 (rhabdomyosarcoma, adherent)	0.966	> 10	–	–	0.203	0.101	0.971	> 5	0.992	> 5.12
RL95-2 (endometrium, adherent)	0.932	> 10	–	–	0.847	7.22	–	–	0.917	> 5.12

Cell Line	AUC (XMD11-85h)	IC50 (XMD11-85h) [µM]	AUC (MLN4924)	IC50 (MLN4924) [µM]	AUC (BMN-673)	IC50 (BMN-673) [µM]	AUC (AZD6482; [1])	IC50 (AZD6482; [1]) [µM]	AUC (AZD6482; [2])	IC50 (AZD6482; [2]) [µM]
RPMI-7951 (melanoma, adherent)	0.972	> 10	–	–	0.768	3.63	0.895	> 5	0.897	> 5.12
RVH-421 (melanoma, adherent)	0.947	> 10	–	–	0.899	> 10	0.803	3.63	0.84	> 5.12
SBC-3 (small cell lung carcinoma, adherent)	0.94	> 10	–	–	0.712	2.32	0.973	> 5	0.914	> 5.12
SCC90 (head and neck, adherent)	0.964	> 10	–	–	0.908	> 10	0.981	> 5	0.859	> 5.12
SF268 (glioma, adherent)	0.97	> 10	–	–	0.654	1.73	0.915	> 5	0.862	4.95
SF295 (glioma, adherent)	0.962	> 10	–	–	0.623	1.4	0.933	> 5	0.764	2
SJSA-1 (bone, adherent)	0.961	> 10	–	–	0.898	> 10	–	–	0.947	> 5.12
SK-GT-4 (oesophagus, adherent)	0.894	> 10	–	–	0.882	> 10	0.966	> 5	–	–
SK-MEL-5 (melanoma, adherent)	0.954	> 10	–	–	0.851	> 10	0.868	> 5	–	–
SK-MEL-28 (melanoma, adherent)	0.953	> 10	–	–	0.957	> 10	–	–	0.931	> 5.12
SK-MG-1 (glioma, adherent)	0.976	> 10	–	–	0.843	7.18	0.862	4.37	–	–
SK-MM-2 (myeloma, suspension)	0.904	> 10	–	–	0.961	> 10	0.963	> 5	0.947	> 5.12
SK-N-AS (neuroblastoma, adherent)	0.982	> 10	–	–	0.855	9.95	0.972	> 5	0.979	> 5.12
SK-N-DZ (neuroblastoma, adherent)	0.819	5.59	–	–	0.964	> 10	0.807	2.52	0.947	> 5.12
SK-N-SH (neuroblastoma, adherent)	0.958	> 10	–	–	0.314	0.19	0.929	> 5	0.768	1.9
SKN (uterus, adherent)	0.961	> 10	–	–	0.81	6.65	0.727	1.6	0.629	0.783
SNU-387 (liver, adherent)	0.958	> 10	–	–	0.82	6.78	0.964	> 5	0.886	> 5.12
SNU-C2B (large intestine, adherent)	0.919	> 10	–	–	0.853	> 10	–	–	0.962	> 5.12
STS-0421 (soft tissue, adherent)	0.895	> 10	–	–	0.598	1.21	0.884	> 5	0.925	> 5.12
SU8686 (pancreas, adherent)	0.955	> 10	–	–	0.877	> 10	0.977	> 5	0.963	> 5.12
SW48 (large intestine, adherent)	0.908	> 10	–	–	0.633	1.45	0.938	> 5	0.941	> 5.12
SW626 (ovary, adherent)	0.949	> 10	–	–	0.916	> 10	0.974	> 5	0.908	> 5.12

Cell Line	AUC (XMD11-85h)	IC50 (XMD11-85h) [µM]	AUC (MLN4924)	IC50 (MLN4924) [µM]	AUC (BMN-673)	IC50 (BMN-673) [µM]	AUC (AZD6482; [1])	IC50 (AZD6482; [1]) [µM]	AUC (AZD6482; [2])	IC50 (AZD6482; [2]) [µM]
SW948 (large intestine, adherent)	0.98	> 10	–	–	0.98	> 10	0.971	> 5	0.981	> 5.12
SW1573 (lung adenocarcinoma, adherent)	0.967	> 10	–	–	0.679	2.36	0.81	3.83	0.895	> 5.12
SW1783 (glioma, adherent)	0.988	> 10	–	–	0.909	> 10	0.889	4.74	0.495	0.31
T84 (large intestine, adherent)	0.988	> 10	–	–	0.972	> 10	0.955	> 5	0.986	> 5.12
TE-4 (oesophagus, adherent)	0.981	> 10	–	–	0.871	9.37	0.985	> 5	–	–
TGBC1TKB (biliary tract, adherent)	0.987	> 10	–	–	0.898	> 10	0.632	0.722	0.89	> 5.12
TK10 (kidney, adherent)	0.939	> 10	–	–	0.888	> 10	0.863	> 5	0.931	> 5.12
TMK-1 (stomach, adherent)	0.945	> 10	–	–	0.767	3.93	0.784	2.26	0.879	> 5.12
TOV-21G (ovary, adherent)	0.98	> 10	–	–	0.356	0.24	0.865	> 5	0.985	> 5.12
TOV-112D (ovary, adherent)	0.913	> 10	–	–	0.681	2.02	0.926	> 5	0.884	> 5.12
TT2609-C02 (thyroid, adherent)	0.985	> 10	–	–	0.945	> 10	0.957	> 5	0.891	> 5.12
TYK-nu (ovary, adherent)	0.929	> 10	–	–	0.471	0.517	0.925	> 5	0.985	> 5.12
UACC-62 (melanoma, adherent)	0.916	> 10	–	–	0.829	6.14	0.732	1.42	0.804	2.52
UACC-893 (breast, adherent)	0.978	> 10	–	–	0.961	> 10	0.703	1.43	0.773	2.7
VAL (B-cell lymphoma, suspension)	0.945	> 10	–	–	0.931	> 10	0.865	4.42	0.883	> 5.12
VMRC-MELG (melanoma, adherent)	0.988	> 10	–	–	0.948	> 10	0.84	3.69	0.874	> 5.12
VMRC-RCZ (kidney, adherent)	0.98	> 10	–	–	0.943	> 10	0.779	2.39	0.436	0.207
WIL2-NS (lymphoid neoplasm, suspension)	0.944	> 10	–	–	0.585	1.02	0.989	> 5	0.882	3.7
WM35 (melanoma, adherent)	0.932	> 10	–	–	0.889	> 10	–	–	0.896	> 5.12
WM1552C (melanoma, adherent)	0.926	> 10	–	–	0.936	> 10	–	–	0.849	3.89
YH-13 (glioma, adherent)	0.953	> 10	–	–	0.924	> 10	0.746	1.67	–	–
no-11 (glioma, adherent)	0.981	> 10	–	–	0.919	> 10	0.784	2.72	0.949	> 5.12
